This is an account of results in paper PMC4336329 (PLoS ONE, 2015).

Out of some 310,000 compounds screened, about 2,200 (0.71%) showed an effect of 50% or more. The effect is printed as a negative number. This is one part of the list.

The experiment deals with human ether-à-go-go-related gene (hERG) potassium channel (human, UniProt Q12809). The experiment is described as follows: primary screen, population patch clamp on CHO cells stably expressing hERG.
Chain of human ether-à-go-go-related gene (hERG) potassium channel (Q12809 whole entry, looked up): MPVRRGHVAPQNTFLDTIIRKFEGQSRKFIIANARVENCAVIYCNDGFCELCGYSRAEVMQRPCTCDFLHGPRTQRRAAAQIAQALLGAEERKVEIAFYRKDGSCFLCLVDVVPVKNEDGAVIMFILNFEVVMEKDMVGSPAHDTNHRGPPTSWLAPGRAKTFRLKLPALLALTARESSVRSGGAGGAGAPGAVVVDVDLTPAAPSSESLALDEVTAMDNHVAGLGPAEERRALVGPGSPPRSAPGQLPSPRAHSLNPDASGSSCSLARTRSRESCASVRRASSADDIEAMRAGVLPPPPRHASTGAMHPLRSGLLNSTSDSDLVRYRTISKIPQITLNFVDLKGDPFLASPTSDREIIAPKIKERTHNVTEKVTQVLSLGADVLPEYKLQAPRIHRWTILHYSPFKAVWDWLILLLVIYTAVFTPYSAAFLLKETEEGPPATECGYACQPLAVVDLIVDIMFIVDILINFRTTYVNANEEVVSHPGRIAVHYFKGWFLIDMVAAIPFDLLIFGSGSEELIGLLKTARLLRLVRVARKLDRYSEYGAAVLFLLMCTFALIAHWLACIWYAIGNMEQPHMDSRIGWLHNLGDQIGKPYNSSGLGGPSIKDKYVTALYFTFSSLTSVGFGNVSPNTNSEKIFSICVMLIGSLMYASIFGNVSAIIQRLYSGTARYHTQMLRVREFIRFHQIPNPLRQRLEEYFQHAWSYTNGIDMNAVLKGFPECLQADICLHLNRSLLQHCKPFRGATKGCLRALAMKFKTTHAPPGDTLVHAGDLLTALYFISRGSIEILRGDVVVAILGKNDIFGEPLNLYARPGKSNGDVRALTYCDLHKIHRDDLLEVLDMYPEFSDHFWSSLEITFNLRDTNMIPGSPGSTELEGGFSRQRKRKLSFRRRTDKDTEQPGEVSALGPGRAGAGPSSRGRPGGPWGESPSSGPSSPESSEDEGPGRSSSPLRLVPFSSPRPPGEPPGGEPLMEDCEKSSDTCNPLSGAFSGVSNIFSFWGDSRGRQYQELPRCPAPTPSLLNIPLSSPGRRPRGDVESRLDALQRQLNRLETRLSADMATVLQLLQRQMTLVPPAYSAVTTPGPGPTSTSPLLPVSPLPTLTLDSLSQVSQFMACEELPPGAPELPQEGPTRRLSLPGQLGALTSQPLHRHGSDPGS
On to `O=C(CCN1CCOCC1)Nc1c(-c2ccccc2)c2cc(Br)ccc2[nH]c1=O`, for which the “hERG current change (%, negative = inhibition) at 1uM” value is listed as -5.72%.

Take `O=c1c2ccsc2ncn1Cc1ccccc1F`: the “hERG current change (%, negative = inhibition) at 1uM” value was 0.665%.

For `CN(CC(=O)Nc1cccc(F)c1)C(=O)c1ccc(NC2CC2)c([N+](=O)[O-])c1`, the “hERG current change (%, negative = inhibition) at 1uM” value is -23.5%.

Turning to `Cc1cc(=O)oc2cc3c(cc12)OCCN3`, the “hERG current change (%, negative = inhibition) at 1uM” value was 10.6%.

In the case of `O=C(CSc1nnc(NC(=O)C2CC2)s1)Nc1ccccc1Cl`, the “hERG current change (%, negative = inhibition) at 1uM” value is 14.8%.

`CS(=O)(=O)c1sc(C(=O)NC(=S)Nc2ccc(OC(F)(F)F)cc2)c2c1C=CCC2`: the “hERG current change (%, negative = inhibition) at 1uM” value is 9.45%.

For `O=S(=O)(Cc1cc(Cl)nc(-c2ccccc2)n1)c1ccccc1`, the “hERG current change (%, negative = inhibition) at 1uM” value was found to be 8.68%.

As for `Cc1ccc(N2C(=O)C(Cl)=C(N3CCOCC3)C2=O)c(C)c1`, the “hERG current change (%, negative = inhibition) at 1uM” value is 17.3%.

On to `O=C(NCCc1ccccc1Cl)c1cc(COc2ccc(F)cc2F)on1`, for which the “hERG current change (%, negative = inhibition) at 1uM” value came to 11.1%.

Consider `COc1ccc(-c2cc(=O)oc(-c3cccc(C)c3)n2)cc1`, for which the “hERG current change (%, negative = inhibition) at 1uM” value came to 13.7%.

On to `CCc1nc(-c2ccccc2O)n(-c2ccccc2)n1`, for which the “hERG current change (%, negative = inhibition) at 1uM” value turned out to be 9.75%.

As to `Cc1ccc(OCCCC(=O)Nc2ccc(S(=O)(=O)Nc3cc(C)on3)cc2)cc1`, the “hERG current change (%, negative = inhibition) at 1uM” value came to 12.2%.

With `CCN(CC)C1=NC(=[N+](CC)CC)c2ccccc21.[O-][Cl+3]([O-])([O-])[O-]`, the “hERG current change (%, negative = inhibition) at 1uM” value is listed as -7.91%.

For `O=C(O)C1[C@H]2C(=O)N(C3CCCC3)C[C@]23C=C[C@H]1O3` (some centres unmarked), the “hERG current change (%, negative = inhibition) at 1uM” value came out at 0.602%.

For `Cc1ccc(C(=O)COC(=O)c2cc(Cl)ccc2O)cc1[N+](=O)[O-]`, the “hERG current change (%, negative = inhibition) at 1uM” value was 12.3%.

As for `CCn1c(SCC(=O)Nc2cc(C)on2)nc2c(c1=O)SCC2`, the “hERG current change (%, negative = inhibition) at 1uM” value came out at 12.7%.

For `COc1ccc(N2CCN(C(=O)C3CC(=O)N(c4ccc(C)cc4)C3)CC2)cc1` (centres unmarked), the “hERG current change (%, negative = inhibition) at 1uM” value was -8.62%.

On to `Cc1ccc(CNC(=O)c2ccc(N3CCC4(CC3)CC(c3cccc(Br)c3)=NO4)c(NC(=O)c3ccccc3)c2)cc1`, for which the “hERG current change (%, negative = inhibition) at 1uM” value stood at 13.2%.

Take `COc1ccc(N(CC(=O)Nc2ccccc2C)S(=O)(=O)c2ccccc2[N+](=O)[O-])c(OC)c1`: the “hERG current change (%, negative = inhibition) at 1uM” value is given as 0.716%.

Regarding `O=Cc1cc(-c2ccccc2)[nH]c1-c1ccccc1`, the “hERG current change (%, negative = inhibition) at 1uM” value amounted to 16.2%.

For `COc1cc(-c2c(-c3ccc4c(c3)OCO4)noc2-c2ccsc2)ccc1F`, the “hERG current change (%, negative = inhibition) at 1uM” value worked out at 5.96%.

Regarding `COC1CCN(C(=O)CC2C(=O)NCCN2CC2CCCCC2)CC1` (centres unmarked), the “hERG current change (%, negative = inhibition) at 1uM” value worked out at 9.82%.

As to `N#CC1=C(N)N2C(=C(C#N)C1c1cccc(Br)c1)Nc1ccccc12` (centres unmarked), the “hERG current change (%, negative = inhibition) at 1uM” value amounted to 8.63%.
